Source: PubChem BioAssay AID1963576 (National Center for Advancing Translational Sciences (NCATS), 2024)
Among all 46,000 compounds or so, about 60 (0.1%) were called active. Inconclusive means that the source gave no clear call. Such entries were picked first, then a sample of the others. The call rests on the fitted dose curve; in most records, active means well fitted inhibition curve with a large enough effect; inconclusive means small, poorly fitted or top-dose-only effect; inactive means no such curve, though single readings can be large or run the other way. No potency is given beside an inconclusive call; the fits are too rough.

Assay: Primary qHTS assay for Inhibitors of ovarian cancer metastasis using an organotypic tumor microenvironment (TME) model. Further: nearly all actives have a fitted effect of over 65% in size.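 On activity change, negative = inhibition: plate controls were DMSO wells for no effect and tomatine positive control wells for full effect.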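 On potency: count of GFP cancer cells still attached after washing and fixation.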
Settings: SKOV3ip1-GFP adhesion/invasion on 3D omental model, fluorescence; activity change, negative = inhibition: at 45.8 µM (top of the series); series mostly up to 45.8 µM
In short: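 A 3D layer of primary human omental fibroblasts, mesothelial cells, fibronectin and collagen I, grown 48 hr, received SKOV3ip1-GFP cells in serum-free medium plus compounds at 0.36-46 umol/L. After 2 hr RT and 16 hr 37 C, fixed adherent GFP cells were counted; normalized to DMSO and tomatine.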
Potency means the concentration at half of the fitted maximal effect; tags describe the fitted curve by direction and shape.

Row | SMILES | Potency | activity change, negative = inhibition
1 | CNC(=O)c1c(F)cccc1Nc1nc(Nc2cc3c(cc2OC)CCN3C(=O)CN(C)C)nc2[nH]ccc12 | inconclusive [inhibitor, single point] | 
2 | CC(=O)N1CCC(N(Cc2ccco2)C(=O)Nc2ccc(Br)cc2F)CC1 | inconclusive [inhibitor, partial curve, poor fit] | 
3 | COc1ccc(C(=O)NNc2ncnc3c2cnn3-c2ccccc2)cc1 | inconclusive [inhibitor, single point] | 
4 | CCN(CC)CCNC(=O)c1[nH]c2ccccc2c1Sc1ccc(Cl)cc1 | inconclusive [inhibitor, partial curve, poor fit] | 
5 | CC(C)Oc1ccc(C(=O)N2CC(=O)Nc3ccc(F)cc3C2c2ccc(F)cc2)cc1 (stereo unspecified) | inconclusive [inhibitor, single point] | 
6 | COc1ccc(NC(=O)CN(C)S(=O)(=O)c2cccc3nsnc23)cc1 | inconclusive [inhibitor, single point] | 
7 | CCCCCNC(=O)CCn1c(=O)[nH]c2ccccc2c1=O | inconclusive [inhibitor, partial curve, poor fit] | 
8 | CCc1ccccc1NC(=O)Nc1cc(C(=O)NCc2ccc(OC)cc2)ccc1N1CCCC1 | inconclusive [inhibitor, single point] | 
9 | Cc1nnc2c3ccccc3nc(Nc3cccc(O)c3)n12 | inconclusive [inhibitor, single point] | 
10 | COc1cc([C@@H]2c3cc4c(cc3[C@@H](O[C@@H]3O[C@@H]5CO[C@@H](C)O[C@@H]5[C@H](O)[C@@H]3O)[C@H]3COC(=O)[C@H]23)OCO4)cc(OC)c1O |  | inactive: -12.2%
11 | O=c1oc2ccccc2cc1-c1cn2cc(Cc3ccccc3F)sc2n1 | inconclusive [inhibitor, full curve, poor fit] | 
12 | N#Cc1c(NC(=O)CS(=O)(=O)c2ccc(Cl)cc2)sc2c1CCCCC2 | inconclusive [inhibitor, partial curve, poor fit] | 
13 | COc1cc(-c2cc(OC)c3c(C)oc(C)c3c(=O)c2)ccc1OC(=O)c1ccccc1F | inconclusive [inhibitor, single point] | 
14 | Cc1cc(OCC(=O)Nc2nc3c(s2)CCCC3)cc(C)c1Cl | inconclusive [inhibitor, single point] | 
15 | COc1cc(OC)cc(C(=O)Nc2nnc3n2CCS3)c1 | inconclusive [inhibitor, single point] | 
16 | Cc1ccc(C)c(Nc2cc(C(=O)NCCCN(C)C3CCCCC3)c3ccccc3n2)c1 | inconclusive [inhibitor, partial curve, poor fit] | 
17 | Cn1cc(S(=O)(=O)N2CCCCC2)cc1C(=O)N1CCN(c2ccccc2F)CC1 | inconclusive [inhibitor, single point] | 
18 | CN1CCN(CCCNC(=O)Cn2c(-c3cccs3)cc3cc(Cl)ccc32)CC1 | inconclusive [inhibitor, single point] | 
19 | NC1(Cc2ccc(Cl)cc2)CCN(c2ncnc3[nH]ccc23)CC1 |  | inactive: 7.77%

Row | SMILES | Potency | activity change, negative = inhibition
20 | Cc1ccc(-n2nc3c(N4CCC(C(=O)NC(C)c5ccccc5)CC4)nnc(C)c3c2C)cc1 (stereo unspecified) | inconclusive [inhibitor, single point] | 
21 | CC1=C(CO)C(=O)O[C@@H]([C@@H](C)[C@H]2CC[C@H]3[C@@H]4C[C@H]5O[C@]56[C@@H](O)C=CC(=O)[C@]6(C)[C@@H]4CC[C@]23C)C1 | active: 4.69 µM | 
22 | Cc1cc(C(=O)C(=O)Nc2nnc(C(C)C)s2)c(C)n1-c1ccccc1 |  | inactive: -1.77%
23 | Cc1ccc(-c2nnc(SCC(=O)NCc3ccccc3)nc2-c2ccc(C)cc2)cc1 | inconclusive [inhibitor, single point] | 
24 | CNS(=O)(=O)c1cc(-c2nnc(Nc3cc(C)ccc3C)c3ccccc23)ccc1C | inconclusive [inhibitor, single point] | 
25 | Cc1ccc(CN(Cc2cccn2-c2nnc(N3CCCC3=O)s2)C(=O)Nc2ccc(F)cc2)cc1 | inconclusive [inhibitor, full curve] | 
26 | CCOC(=O)c1ccccc1NC(=O)NCc1cccn1Cc1ccc(F)cc1 | inconclusive [inhibitor, partial curve, poor fit] | 
27 | CC(=O)c1ccc(N2CCN(c3nc4ccccc4c4nc(-c5cccc(C)c5)nn34)CC2)cc1 | inconclusive [inhibitor, single point] | 
28 | CCOc1ccc(NC(=O)Cn2c(=O)n(Cc3ccco3)c(=O)c3ccc(C(=O)NC4CCCC4)cc32)cc1 | inconclusive [inhibitor, single point] | 
29 | O=C(NCCCN1CCCCC1)c1[nH]c2ccccc2c1Sc1ccc(Cl)cc1 | inconclusive [inhibitor, single point] | 
30 | O=C(CCS(=O)(=O)c1nc(-c2cccs2)cc(C(F)(F)F)n1)Nc1ccc(F)c(Cl)c1 | inconclusive [inhibitor, single point] | 
31 | COc1cccc(NC(=O)Cn2nnc(C(=O)NCCc3ccccc3)c2N)c1 | inconclusive [inhibitor, single point] | 
32 | Cc1cccc(NC(=O)CSc2nc3ccccc3c3nc(CCc4c(C)n[nH]c4C)nn23)c1 | inconclusive [inhibitor, single point] | 
33 | CCOc1ccccc1Nc1nnc(-c2cc3cc(Cl)ccc3oc2=O)s1 | inconclusive [inhibitor, partial curve, poor fit] | 
34 | CCS(=O)(=O)c1oc(-c2ccc(F)cc2)nc1S(=O)(=O)c1ccc(Br)cc1 | inconclusive [inhibitor, full curve, poor fit] | 
35 | CC(=O)C1=C(c2ccc(Cl)c(Cl)c2)N(C(C)=O)n2cnnc2S1 | inconclusive [inhibitor, single point] | 
36 | CCS(=O)(=O)c1cccc(-c2cc(C(=O)NC3CCN(C)CC3)c(C)c3[nH]c4ncc(C)cc4c23)c1 | inconclusive [inhibitor, partial curve, poor fit] | 
37 | CCOC(=O)c1cc(-c2ccccc2)n(CCCC(=O)Nc2ccc(C)cc2Cl)c1C | inconclusive [inhibitor, single point] | 
38 | Cc1cc(C)c(NS(=O)(=O)c2cc(-c3cnc(C4CC4)o3)ccc2C)c(C)c1 | inconclusive [inhibitor, single point] | 

Row | SMILES | Potency | activity change, negative = inhibition
39 | Cc1cccc(Cc2c(C)nc3nc(SCC(=O)NCc4ccc(F)cc4)nn3c2C)c1 | inconclusive [inhibitor, single point] | 
40 | Cc1ccc(N(CC(=O)N2CCN(c3cc(Cl)ccc3C)CC2)S(=O)(=O)c2c(C)noc2C)cc1 | inconclusive [inhibitor, single point] | 
41 | CCCCN(CC)CCNC(=O)C1CCN(c2nnc(C)c3c(C)n(-c4ccc(C)cc4)nc23)CC1 | inconclusive [inhibitor, partial curve, poor fit] | 
42 | Cc1ccc(-n2nc(C)c3c(C(=O)O)cc(C)nc32)cc1 | inconclusive [inhibitor, single point] | 
43 | COc1ccc(N2CCN(C(=O)c3cc(NS(=O)(=O)c4ccc(F)cc4)ccn3)CC2)cc1 | inconclusive [inhibitor, full curve, poor fit] | 
44 | COc1cccc(C(=O)Nc2c3c(nn2-c2ccc(Cl)cc2)CS(=O)(=O)C3)c1 | inconclusive [inhibitor, single point] | 
45 | Cc1ccc(S(=O)(=O)N(CC(=O)Nc2ccc3c(c2)OCO3)c2ccc(C)c(Cl)c2)cc1 | inconclusive [inhibitor, single point] | 
46 | COc1ccc(/C=C/C(=O)Nc2ccc3nc(N4CCCCC4)cc(C)c3c2)cc1OC | inconclusive [inhibitor, single point] | 
47 | Cc1cccc(Cn2c(SCc3ccc(C(=O)NCCc4ccccc4)cc3)nc3cccnc32)c1 | inconclusive [inhibitor, single point] | 
48 | COc1cc(Cl)c(C)cc1Nc1c2c(nc3ccccc13)CCC2 | inconclusive [inhibitor, partial curve, poor fit] | 
49 | CCCCN(CC)CCCNC(=O)C1CCN(c2nc3ccc(CC)cc3s2)CC1 | inconclusive [inhibitor, single point] | 
50 | Cc1ccc(S(=O)(=O)NCC(c2ccco2)N2CCN(c3ccccc3F)CC2)cc1 (stereo unspecified) | inconclusive [inhibitor, single point] | 
51 | COc1cccc(NC(=O)Cn2nc3c4ccccc4n(Cc4cccc(F)c4)cc-3c2=O)c1 |  | inactive: -7.51%
52 | CCOc1ccc(NCc2cccn2-c2nnc(N3CCC(C(=O)NCc4ccc(C)cc4)CC3)s2)cc1 |  | inactive: -2.23%
53 | Cc1noc(C)c1S(=O)(=O)NCCc1csc2nc(-c3ccc(F)cc3)nn12 | inconclusive [inhibitor, single point] | 
54 | Cc1ccc(C)c(NC(=O)Cn2c(=O)oc3cc(S(=O)(=O)NCc4ccccc4)ccc32)c1 |  | inactive: 1.59%
55 | CCN(CCCNC(=O)c1cc2c(=O)[nH]c3ccc(C)cc3c2s1)Cc1ccccc1 | inconclusive [inhibitor, partial curve, poor fit] | 
56 | CCOC(=O)c1c(NC(=O)c2ccc(S(=O)(=O)N(C)C)cc2)sc2c1CCN(C)C2 | inconclusive [inhibitor, single point] | 
